# According to PubChem BioAssay AID1030 (National Center for Advancing Translational Sciences (NCATS), 2008):
# “And” between values parts separate entries of the source, which are not always exact repeats. Equal entries are not always repeated. About 16,000 (7.3%) of roughly 220,000 compounds were called active. The shares of active, inactive and inconclusive entries below differ from those in the screen. The call rests on the fitted dose curve; in most records, active means well fitted inhibition curve with a large enough effect (not every such curve was filed as active); inconclusive means small, poorly fitted or top-dose-only effect, or another doubt; inactive means no such curve, though single readings can be large or run the other way. Where the call is inconclusive, the potency comes from a doubtful curve fit.
# Target: Aldehyde dehydrogenase 1A1 (Homo sapiens) (UniProt P00352)
# Experiment: qHTS Assay for Inhibitors of Aldehyde Dehydrogenase 1 (ALDH1A1);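 on activity, negative = inhibition: plate controls were no enzyme wells and a reference inhibitor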
# Conditions: Purified ALDH1A1, NADH fluorescence, propionaldehyde substrate; series mostly up to 75.3 µM; activity, negative = inhibition: at the top concentration
# Potency means the concentration at half of the fitted maximal effect; tags describe the fitted curve by direction and shape.
# Sequence of UniProt P00352 (P00352 whole entry, looked up): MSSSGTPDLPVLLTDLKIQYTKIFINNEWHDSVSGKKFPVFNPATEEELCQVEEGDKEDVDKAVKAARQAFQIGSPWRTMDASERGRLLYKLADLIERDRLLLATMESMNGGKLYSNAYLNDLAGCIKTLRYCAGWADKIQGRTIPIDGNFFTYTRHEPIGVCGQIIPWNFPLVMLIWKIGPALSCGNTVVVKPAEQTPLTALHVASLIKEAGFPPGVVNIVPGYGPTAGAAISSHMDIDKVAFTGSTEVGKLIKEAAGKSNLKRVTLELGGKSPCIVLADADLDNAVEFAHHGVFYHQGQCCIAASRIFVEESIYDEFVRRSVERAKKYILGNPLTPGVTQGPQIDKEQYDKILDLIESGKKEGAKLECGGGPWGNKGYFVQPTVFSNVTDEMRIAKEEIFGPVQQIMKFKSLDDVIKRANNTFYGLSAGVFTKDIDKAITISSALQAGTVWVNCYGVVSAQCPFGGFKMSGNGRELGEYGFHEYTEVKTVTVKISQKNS
SMILES,Potency,"activity, negative = inhibition"
Clc1ccc2c(c1)C1OCCC1C(c1ccco1)N2 (stereo not given),"inconclusive: 31.6 µM [inhibitor, partial curve]",
Cc1ccc(CN(Cc2cccnc2)C(=S)Nc2cc(Cl)ccc2C)cc1,"inconclusive: 39.8 µM [inhibitor, single point]",
COc1ccccc1C(=O)C1CCCN(C(=O)c2ccccn2)C1 (stereo not given),,inactive: 7.67%
COc1ccc(-c2csc(NC(=S)NC(=O)c3cccs3)n2)cc1OC,active: 11.2 µM,
O=c1oc2ccccc2cc1-c1cn2ccccc2n1,"inconclusive: 8.91 µM [inhibitor, partial curve]",
CCN(CC)c1ccc(CNc2nc3ccccc3n2CCN2CCCCC2)cc1,"inconclusive: 39.8 µM [inhibitor, single point]",
CCCCCCCc1cc2c(cn1)C(=O)C(C)(OC(C)=O)C(O)=C2Cl (stereo not given),"inconclusive: 22.4 µM [inhibitor, partial curve, poor fit]",
Cn1c(=O)c(C(=O)COC(=O)c2cc(-c3ccco3)nc3ccccc23)c(N)n(Cc2ccccc2)c1=O,"inconclusive: 20 µM [inhibitor, partial curve] and inconclusive: 11.2 µM [inhibitor, partial curve]",
O=C(Nc1ccc(Cl)c(Cl)c1)N1N=CCC1c1ccccc1 (stereo not given),"inconclusive: 39.8 µM [inhibitor, single point]",
Cc1noc(NS(=O)(=O)c2ccc(N/C=C\C(=O)c3ccncc3)cc2)c1C,,inactive: -6.87%
CCC(=O)Nc1ccccc1N1CCN(S(C)(=O)=O)CC1,"inconclusive: 39.8 µM [inhibitor, single point]",
CCOC(=O)C(C)Oc1ccc2c(CC)cc(=O)oc2c1C (stereo not given),"inconclusive: 31.6 µM [inhibitor, single point]",
CCOC(=O)c1sc2ncnc(N3CCN(C)CC3)c2c1C,"inconclusive: 23.8 µM [inhibitor, single point]",
C[C@@H]1O[C@@H](Oc2c(-c3cc(O)c(O)c(O)c3)oc3cc(O)cc(O)c3c2=O)[C@H](O)[C@H](O)[C@H]1O,"inconclusive: 25.1 µM [inhibitor, single point]",
CC(C)C(=O)c1cc2c(cc1NC(=O)c1ccccc1)OCCO2,"inconclusive: 39.8 µM [inhibitor, single point]",
COCCNC(=O)[C@H]1C[C@@H]1[C@H](NP(=O)(c1ccccc1)c1ccccc1)c1ccccc1,inactive,
Cc1nn(-c2ccccc2)c(Cl)c1/C=C1\SC(=S)NC1=O,"inconclusive: 31.6 µM [inhibitor, single point]",
COc1ccc(CCN2C(=O)C3C4CCC(C4=C(C)C)C3C2=O)cc1OC (stereo not given),active: 12.6 µM,
O=C(O)c1cccc(Cn2c(Cl)c(/C=N/Nc3ccccc3)sc2=O)c1,active: 22.4 µM,
COc1ccc(N2C(=O)C(=O)/C(=C(/O)c3ccc(C)cc3)C2c2cccnc2)cc1 (stereo not given),active: 7.94 µM,
CCc1ccccc1NC(=O)CN(c1ccc(OC)cc1OC)S(=O)(=O)c1ccccc1[N+](=O)[O-],,inactive: -5.19%
CCN(CC)C(=O)c1ccc2nc3ccccc3nc2c1,"inconclusive: 22.4 µM [inhibitor, single point]",
O=C(Nc1ccc2c(c1)OCCO2)C1CCN(S(=O)(=O)c2ccc3c(c2)OCCO3)CC1,"inconclusive: 39.8 µM [inhibitor, single point]",
Cc1cccc(NCC(=O)N/N=C\c2cccc(Oc3ccccc3)c2)c1,"inconclusive: 39.8 µM [inhibitor, single point]",

SMILES,Potency,"activity, negative = inhibition"
Cc1ccc(C(=O)Nc2ccon2)cc1S(=O)(=O)N1CCCCCC1,"inconclusive: 15.8 µM [inhibitor, single point]",
CCC(=O)NC(c1ccccc1OC)c1ccc2cccnc2c1O (stereo not given),,inactive: 0.461%
CS(=O)(=O)N1CCN(c2nc3ccccc3s2)CC1,,inactive: 4.43%
Cc1ccc(SCCNC(=O)c2ccccc2)cc1,"inconclusive: 15.8 µM [inhibitor, partial curve]",
O=C(NCc1cccs1)C1CCN(C(=O)NCc2ccccc2)CC1,,inactive: 1.91%
COc1ccccc1C(=O)Nc1ccc2c(c1)nc1n2CCN(Cc2ccccc2)C1,"inconclusive: 12.6 µM [inhibitor, partial curve]",
O=C(Nc1ccc2nc3n(c(=O)c2c1)CCCC3)c1cccc([N+](=O)[O-])c1,,inactive: 2.7%
Nc1ccc(S(=O)(=O)c2ccc(N)c(N)c2)cc1,"inconclusive: 39.8 µM [inhibitor, single point]",
O=C(Nc1ccncc1)c1ccccc1[N+](=O)[O-],,inactive: 3.73%
c1ccc(N2CCN(Cc3nnnn3C3CCCCC3)CC2)cc1,active: 28.2 µM,
Cc1ccc(C2CN(c3ccccc3)CC2C(=O)c2ccc(F)cc2)cc1 (stereo not given),"inconclusive: 39.8 µM [inhibitor, single point]",
COc1ccc(-c2nc3n(n2)C(=O)CC(c2ccco2)S3)cc1 (stereo not given),"inconclusive: 39.8 µM [inhibitor, single point]",
CC1=C(C#N)C(c2cccnc2)C2=C(N1)c1ccccc1C2=O (stereo not given),,inactive: -1.28%
CN1CCN(C2CC(=O)N(c3ccc4c(c3)OCCO4)C2=O)CC1 (stereo not given),"inconclusive: 28.2 µM [inhibitor, single point]",
Cc1ccc(CNC(=O)CCC2CCCN(C(=O)CCC(F)(F)F)C2)o1 (stereo not given),"inconclusive: 39.8 µM [inhibitor, single point]",
COc1cc2c(cc1OC)-c1cc(NCc3ccccn3)nc(=O)n1CC2,"inconclusive: 39.8 µM [inhibitor, single point]",
CC(C)(C)C1CCC(=NNC(=S)NCc2ccccc2)CC1 (stereo not given),"inconclusive: 44.7 µM [inhibitor, single point]",
COc1ccc(OCc2nnc(NC(=O)Nc3ccc(F)cc3)s2)cc1,,inactive: -1.54%
CC1=Nc2ccccc2N=C(NC(=O)CSc2nnnn2-c2ccccc2)C1c1ccccc1 (stereo not given),active: 4.47 µM,
CCCCn1c(SCC(=O)c2ccc(O)c(O)c2)nc2ccsc2c1=O,"inconclusive: 3.98 µM [inhibitor, full curve]",
CCCc1noc2c1/C(=N\O)CC(CC(C)SCC)C2 (stereo not given),"inconclusive: 39.8 µM [inhibitor, single point]",
O=C(COC(=O)Cc1c(Cl)cccc1Cl)Nc1ccccc1-c1ccccc1,"inconclusive: 14.1 µM [inhibitor, partial curve]",
C=CCn1c(C)cc(C2=NNC(=NCc3ccccc3)SC2)c1C,"inconclusive: 28.2 µM [inhibitor, single point]",
O=C(Nc1cn(-c2ccccc2)nc1-c1ccc(Cl)cc1)c1ccccc1,"inconclusive: 35.5 µM [inhibitor, single point]",

SMILES,Potency,"activity, negative = inhibition"
CCOC(=O)c1ccc2nc(C)c3c(c2c1)OC(C)C3 (stereo not given),"inconclusive: 25.1 µM [inhibitor, partial curve]",
Cn1c(Oc2ccc3c(c2)OCO3)nc2c1c(=O)n(Cc1ccccc1)c(=O)n2C,"inconclusive: 3.16 µM [inhibitor, full curve]",
Cc1ccc2nc(-c3ccccc3)cc(C(=O)NCCCn3ccnc3)c2c1,"inconclusive: 35.5 µM [inhibitor, partial curve]",
CCCCN(Cc1ccccc1)S(=O)(=O)c1cc(Br)cc2c1N(C(C)=O)C(C)C2 (stereo not given),,inactive: -1.32%
CCN1CCN(Cc2c(O)ccc3c2O/C(=C\C=C\c2ccccc2)C3=O)CC1,,inactive: -1.93%
CNC(=O)Cn1nc(-c2ccc(C)c(S(=O)(=O)N(C)C)c2)c2ccccc2c1=O,,inactive: -0.0915%
COc1ccc2nc(SCC(C)=O)c(C#N)cc2c1,,inactive: 3.27%
C=CCNC(=S)NNC(=O)COc1cccc(Cl)c1,"inconclusive: 10 µM [inhibitor, partial curve, poor fit]",
O=C(Nc1nnc(-c2cccs2)o1)c1cccc(Oc2ccccc2)c1,"inconclusive: 25.1 µM [inhibitor, single point]",
CC1CCCC(n2c(=S)[nH]c3ccccc3c2=O)C1C (stereo not given),"inconclusive: 35.5 µM [inhibitor, single point]",
O=C(Cn1c(=O)oc2ccccc21)N1CCN(c2ccc(N3CCOCC3)nn2)CC1,"inconclusive: 35.5 µM [inhibitor, partial curve]",
Cc1ccc2nc(SCC(=O)c3c[nH]c4ccccc34)[nH]c2c1,"inconclusive: 39.8 µM [inhibitor, single point]",
CN1CCN(S(=O)(=O)c2cccc(C(=O)NC3CCCc4ccccc43)c2)CC1 (stereo not given),"inconclusive: 39.8 µM [inhibitor, single point]",
Cc1nn(-c2cccc(C(F)(F)F)c2)c(=O)c2noc(C)c12,,inactive: 3.08%
CCn1c(SCC(=O)NCC(=O)Nc2ccc(F)cc2)nnc1-c1cccs1,,inactive: 5.48%
COc1ccccc1/C=C/C(=O)N1CCOCC1,,inactive: 0.677%
COc1ccc(-c2cc(C(=O)N3CCN(c4ncccn4)CC3)c3ccccc3n2)c(OC)c1,"inconclusive: 25.1 µM [inhibitor, partial curve]",
CC(C)CN1CC[C@@]2(CCCN(C(=O)c3cnccn3)C2)C1,,inactive: 9.94%
COc1ccc(/C=C2\SC(=NCc3ccccc3)N(Cc3ccccc3)C2=O)cc1OC,"inconclusive: 15.8 µM [inhibitor, partial curve]",
O=C(Nc1ccc2oc(-c3cccc4ccccc34)nc2c1)c1ncn[nH]1,"inconclusive: 35.5 µM [inhibitor, partial curve]",
COc1cc(CN2CCNC(=O)C2CC(=O)N(C)Cc2ncc[nH]2)cc(OC)c1 (stereo not given),"inconclusive: 8.91 µM [inhibitor, partial curve]",
COC(=O)C1=C(C(=O)OC)[C@@H]2N(C)c3ccc(OC)cc3[C@@]23C[C@@H](C(=O)OC)N(C(=O)c2cc(C)oc2C)C3=N1,,inactive: 14.4% [at 13.5 µM]
